Reference: the supplement of paper PMC11417369
± gives the standard deviation of the averaged measurements. The list shows a part of the results.

System: PfAP2-EXP AP2 domain (GST-tagged)
Assay: gcPBM binding intensity (ln(normalized median fluorescence intensity)); higher = stronger DNA binding
Method in brief: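 Binding intensity is the highest Masliner-normalised natural-log median intensity over replicate spots in either probe orientation. To obtain it, GST-tagged P. falciparum DNA-binding domains made in E. coli were incubated for 1 h on an Agilent 4 × 180k array of primer-extended double-stranded 36-bp intergenic genomic probes plus negative controls. Detection used Alexa488 anti-GST antibody with scanning at 488 nm.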

Row | Sequence | gcPBM binding intensity (ln)
1 | ACAAGGAATATATAAGATAATTTTAAATATAACACG [CACACA_negctrl_site1734] | 8.57 ± 0.36
2 | ATATATATAATTTTTACACACGCAATAAATATATAT [CACACA_site218] | 8.55 ± 0.43
3 | TTATAATAAAGAGGAGTGCAAAAAAAAAAAAAAAAA | 8.34 ± 0.37
4 | AATCAAAATATATCTACACACATTTAAGTAACACAT [CACACA_site3482] | 8.54 ± 0.4
5 | TAAATATCAAAACACACACACAAAAGTGAATAAATA [CACACA_site3762] | 8.71 ± 0.49
6 | AAAAAAAAAAAAAACACACACACACCCACATATACA [CACACA_site2663] | 8.53 ± 0.2
7 | ATTTTTTTCTTAGGAGTGCACTTATATTTATTTTAT | 9.12 ± 0.11
8 | TATTAATTAAACCATACACACATAACTTTTTTATAA [CACACA_site6526] | 8.29 ± 0.38
9 | TAAAGAGAAAAACATACACACACAACAAAATATGTA [CACACA_site8872] | 8.78 ± 0.55
10 | AGGAACATAAGCAATGTATAAACATAAAACTATAAT [CACACA_negctrl_site1832] | 8.76 ± 0.52
11 | TATAAGGTGTCCTATACACACTCCAATAAATATATA [CACACA_site2091] | 8.38 ± 0.4
12 | AATAATTTTTAAATATAAACATTTTTTTTTTTTTTT [GTGCAC_negctrl_site532] | 8.12 ± 0.18
13 | ATTAAATGCACATATACACACACCCAATTTTAAGTT [CACACA_site3049] | 8.8 ± 0.23
14 | ACAAAATAAACCACGTGTACAAATTTATAATGTGTA [XGTACX_site1153] | 8.71 ± 0.5
15 | ATATATATATATTCCACACACACACCCAAAAAAAAA [CACACA_site3649] | 9.885 ± 0.078
16 | ATAAAATATTAGACATTTATTAATATTACACATATC [XGTACX_negctrl_site364] | 8.23 ± 0.34
17 | TTTTATTTTTTATTTGCACACAATATGTAAAAAAAT [CACACA_site2927] | 8.71 ± 0.16
18 | ATATTTATGGAAAAAGAACACACAATCAAACAAAAA [CACACA_site9233] | 8.98 ± 0.5
19 | TCAAAAGAATAATTGGTGCAAATTATATAATATAAT [GTGCAC_site9804] | 8.73 ± 0.19
20 | CTTTTTTATATCTCTACACACATTTATAACCATTTG [CACACA_site4897] | 8.76 ± 0.52
21 | ATACATTTATTGTATTGTACATAATATTATATATTC [XGTACX_site7115] | 8.6 ± 0.35
22 | TATTTTAAAAAAAAAAGTACACATAATATATATAAC [XGTACX_site5416] | 8.64 ± 0.26

Row | Sequence | gcPBM binding intensity (ln)
23 | TAATATAATGATGCAGTGCATATGTTAAAATGAAAA | 8.97 ± 0.25
24 | TAATATAATAGAAGTGTACACACATATTTATGGGTG [CACACA_site9023] | 8.78 ± 0.28
25 | AATTAGATTTACTGAAGTACTTAATTTATTTTATTA [XGTACX_site3407] | 8.85 ± 0.34
26 | AATAATCTATATTGTACACACAAAATGGGAAAAAAA [CACACA_site6969] | 8.81 ± 0.36
27 | AGGTACTTTTTTAAAACACACATATAACATATACAC [CACACA_site6629] | 8.76 ± 0.28
28 | ACCCCCAATACGGAAACACACAAGTTATTTTATCAT [CACACA_site8874] | 9.78 ± 0.66
29 | TTAAATGAAAAATGGGGTACATATATACAAATATAT [XGTACX_site5931] | 8.61 ± 0.42
30 | TGTTTATTTTTAAAAAGTACATATATAAAAAATATC [XGTACX_site4902] | 8.6 ± 0.13
31 | ATAATTTGGAAACACACACACACACCCACATATATA [CACACA_site2286] | 8.84 ± 0.67
32 | TGATTATACGCACGCGCACACACAACCAAAAAAAAA [CACACA_site3537] | 8.7 ± 0.15
33 | AAAAAAAAATACTACTGTACTTTTTTTGGACATCTA [XGTACX_site1096] | 8.12 ± 0.22
34 | AAAAAAGGAAAAGATACACACCGTAAATTAAAATTT [CACACA_site5908] | 8.59 ± 0.4
35 | GAAGGAATATACAATTGTACTTGGCAAAAAAAAAAA [XGTACX_site1884] | 8.74 ± 0.67
36 | ATATATTTATATATTACACACAATATTGTACAGATA [CACACA_site8215] | 8.8 ± 0.31
37 | AAATACTTGTCATATTGTACATGTTTGTGATATATA [XGTACX_site3185] | 8.48 ± 0.32
38 | GTTAAGAATATATAATGTACTTATTTTAATATAGTA [XGTACX_site6088] | 8.09 ± 0.26
39 | ATATATATATATATATGTACATATTGTATTAATTAT [XGTACX_site1919] | 10.1 ± 0.39
40 | TCTTTTAAACAGTACACACACACATCTATATTTATA [CACACA_site6559] | 8.755 ± 0.078
41 | CTCTGTTGTCTTAGTTGTACAATAGAAAAAAATAAT [XGTACX_site7043] | 8.77 ± 0.39
42 | TACAGGAATATTTTTACACACTAAAAATTATAAAAT [CACACA_site1649] | 8.38 ± 0.38
43 | TGATTGAGTAAAATGGGTACATATACACTATTACAT [XGTACX_site5232] | 8.38 ± 0.38
44 | TTTTTTACTTTTGAGACATTTCATATTTTTATTCAC [GTGCAC_negctrl_site730] | 8.48 ± 0.49
